In PubChem BioAssay AID504339 (National Center for Advancing Translational Sciences (NCATS), 2011):
Values joined by “and” are separate entries in the source; they are usually repeats but may differ in a detail not shown here. Identical values can stand only once. The whole screen tested about 390,000 compounds, of which about 17,000 (4.4%) were called active. The shares of active, inactive and inconclusive entries below differ from those in the screen. The call rests on the fitted dose curve; in most records, active means well fitted inhibition curve with a large enough effect; inconclusive means small, poorly fitted or top-dose-only effect; inactive means no such curve, though single readings can be large or run the other way. Where the call is inconclusive, the potency comes from a doubtful curve fit.
Further: nearly all actives have a fitted effect of over 50% in size.
Potency means the concentration at half of the fitted maximal effect; tags describe the fitted curve by direction and shape.

The compounds below were run against Lysine-specific demethylase 4A (Homo sapiens) (UniProt O75164) (assay: qHTS Assay for Inhibitors of JMJD2A-Tudor Domain). Conditions: AlphaScreen JMJD2A-Tudor / H3K4me3 peptide binding; series mostly up to 114 µM.
Sequence of UniProt O75164 (O75164 whole entry, looked up, the tested form may be a part): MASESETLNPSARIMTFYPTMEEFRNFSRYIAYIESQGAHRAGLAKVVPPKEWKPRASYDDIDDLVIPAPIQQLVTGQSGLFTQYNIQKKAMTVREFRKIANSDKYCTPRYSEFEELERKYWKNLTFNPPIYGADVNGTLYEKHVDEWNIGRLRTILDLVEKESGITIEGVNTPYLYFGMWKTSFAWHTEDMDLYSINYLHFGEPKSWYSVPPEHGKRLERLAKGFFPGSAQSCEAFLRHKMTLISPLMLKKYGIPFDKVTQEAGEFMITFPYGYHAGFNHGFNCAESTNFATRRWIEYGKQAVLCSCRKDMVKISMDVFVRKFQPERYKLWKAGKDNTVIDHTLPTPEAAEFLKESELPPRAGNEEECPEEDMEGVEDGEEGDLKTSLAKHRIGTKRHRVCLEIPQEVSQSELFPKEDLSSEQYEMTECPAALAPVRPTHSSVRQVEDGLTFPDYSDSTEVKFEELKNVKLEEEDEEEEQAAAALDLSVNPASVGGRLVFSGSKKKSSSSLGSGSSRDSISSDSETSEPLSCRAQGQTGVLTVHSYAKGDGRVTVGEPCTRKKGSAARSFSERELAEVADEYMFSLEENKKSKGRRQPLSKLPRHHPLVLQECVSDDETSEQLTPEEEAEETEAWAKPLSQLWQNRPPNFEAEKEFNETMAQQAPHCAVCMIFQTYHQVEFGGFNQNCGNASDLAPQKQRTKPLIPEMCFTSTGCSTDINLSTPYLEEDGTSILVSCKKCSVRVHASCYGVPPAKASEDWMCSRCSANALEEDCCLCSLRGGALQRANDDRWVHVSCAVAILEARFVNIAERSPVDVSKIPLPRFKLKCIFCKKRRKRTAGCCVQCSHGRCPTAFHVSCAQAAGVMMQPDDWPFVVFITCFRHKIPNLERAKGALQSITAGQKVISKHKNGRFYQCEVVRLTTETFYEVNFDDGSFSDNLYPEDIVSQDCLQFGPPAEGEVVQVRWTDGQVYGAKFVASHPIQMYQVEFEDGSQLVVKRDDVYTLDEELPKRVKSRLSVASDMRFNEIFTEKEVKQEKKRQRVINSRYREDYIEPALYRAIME
For `Oc1cccc2c(NC(=S)Nc3ccc(SC(F)F)cc3)cccc12`, the Potency was inconclusive: 31.6 µM [inhibitor, full curve]. With `O=C(NC(NNc1ccc([N+](=O)[O-])cc1)(C(F)(F)F)C(F)(F)F)c1ccccc1Cl` the Potency was inconclusive: 50.1 µM [inhibitor, partial curve]. In the case of `CC(C)c1csc(CN2CCN(CCc3ccccc3)C(CCO)C2)n1` (stereo not drawn), the Potency is reported as “inactive”. With `Nc1cccc2c1C(=O)c1ccc(Cl)cc1C2=O` the Potency was active: 14.1 µM. `O=C(NC1CC1)C1CC(=O)N(c2cccc(Cl)c2Cl)C1` (stereo not drawn) was tested, and the Potency was “inactive”. For `Cc1ccc(C)c(Cn2c3ccccc3c3cnn(CC(=O)NCCCN4CCCCC4)c(=O)c32)c1`, the Potency was inconclusive: 79.4 µM [inhibitor, partial curve]. With `CCc1ccccc1-n1nnnc1SCC(=O)Nc1cc(C)on1` the Potency was “inactive”. In the case of `NS(=O)(=O)c1ccc(NC(=S)NCc2ccc3c(c2)OCO3)cc1`, the Potency is reported as “inactive”. For `Cc1cccc(C)c1OCCCCN1CCNCC1`, the Potency was active: 6.31 µM. For `CCOC(=O)c1sc(NC(=O)CN2C(=O)C3CC=CCC3C2=O)nc1C` (stereo not drawn), the Potency was “inactive”. `CCOc1ccc2oc(=O)cc(CN3CCN(c4ccc(OC)cc4)CC3)c2c1` was tested, and the Potency was inconclusive: 56.2 µM [inhibitor, partial curve, poor fit]. `Cc1noc(C)c1COc1ccc(C(=O)NCC(c2c(F)cccc2Cl)N(C)C)cc1` (stereo not drawn) was tested, and the Potency was “inactive”. With `COc1ccc(C(C(=O)NC2CCCCC2)N(Cc2cccnc2)C(=O)c2snc(C(N)=O)c2N)cc1` (stereo not drawn) the Potency was “inactive”. With `Cc1onc(-c2c(Cl)cccc2Cl)c1COC(=O)c1ccc(Cl)cc1[N+](=O)[O-]` the Potency was inconclusive: 20 µM [inhibitor, full curve, poor fit]. In the case of `O=C(CN1CCC(NC(=O)Nc2ccc(F)cc2)CC1)Nc1ccccc1[N+](=O)[O-]`, the Potency is reported as inconclusive: 44.7 µM [inhibitor, partial curve, poor fit]. In the case of `COc1ccccc1N(C)S(=O)(=O)c1ccc(C(=O)N(CC(N)=O)C(C)C)cc1`, the Potency is reported as “inactive”. `CN1C(=O)/C(=C/c2ccc(OCc3ccc(F)cc3)cc2)N(C)C1=S` was tested, and the Potency was “inactive”. With `C/C(O)=C(\C#N)c1nnc2n1CCCCC2` the Potency was inconclusive: 20 µM [inhibitor, partial curve, poor fit]. With `Cc1nc(NC(=O)C23CC4CC(CC(C4)C2)C3)sc1Cc1ccc2c(c1)OCO2` the Potency was inconclusive: 39.8 µM [inhibitor, partial curve]. In the case of `COc1cccc(C(=O)OCC(=O)Nc2cc(C)c(C)cc2[N+](=O)[O-])c1`, the Potency is reported as inconclusive: 22.4 µM [inhibitor, partial curve]. For `COc1cccc(CNC(=O)CCNC(=O)c2ccccc2OC)c1`, the Potency was “inactive”. `O=C(Nc1nccs1)c1ccc2nccnc2c1` was tested, and the Potency was active: 79.4 µM. For `O=S(=O)(Nc1ccc(Br)cc1)c1cccc2nonc12`, the Potency was “inactive”. With `CNC(=O)c1ccc(Nc2nnc(-c3ccc(C)c(S(=O)(=O)NC(C)(C)C)c3)c3ccccc23)cc1` the Potency was “inactive”. With `COc1ccc(C)cc1NC(=O)CCN1CCCC1` the Potency was inconclusive: 39.8 µM [inhibitor, partial curve, poor fit]. `C=CCN1C(=O)c2ccc(C(=O)NCCc3ccc(F)cc3)cc2C1=O` was tested, and the Potency was “inactive”. For `C[C@]1(C(=O)NCCc2c[nH]c3ccccc23)C=C[C@@H](Cc2ccccc2)N1C(=O)c1ccccc1`, the Potency was inconclusive: 56.2 µM [inhibitor, partial curve]. `O=C(NCc1cccc(F)c1)c1ccc(CS(=O)c2ccccc2Cl)o1` (stereo not drawn) was tested, and the Potency was “inactive”. For `Cc1cccc(C(=O)N2CCN(c3ccc([N+](=O)[O-])c(NCc4ccco4)c3)CC2)c1`, the Potency was inconclusive: 5.01 µM [inhibitor, full curve, poor fit]. With `COc1cccc(/C=C/C(=C2\C(=O)N(c3ccccc3)N=C2C)c2ccc(Br)cc2)c1OC` the Potency was inconclusive: 11.2 µM [inhibitor, partial curve]. With `Cc1cc(O)c(C(c2cccc(F)c2)N2CCC(C)CC2)c(=O)n1Cc1ccco1` (stereo not drawn) the Potency was “inactive”. In the case of `COc1ccc(N2CCN(C(=O)CSCc3nc(-c4ccccc4Cl)oc3C)CC2)cc1`, the Potency is reported as active: 50.1 µM. For `O=C1Cc2cc(S(=O)(=O)N3CCN(c4cccc(C(F)(F)F)c4)CC3)ccc2N1`, the Potency was inconclusive: 126 µM [inhibitor, partial curve]. For `CN(C1CCCCC1)S(=O)(=O)c1ccc(C(=O)Nc2sc3c(c2C(N)=O)CC(C)(C)NC3(C)C)cc1`, the Potency was “inactive and inconclusive: 79.4 µM [inhibitor, partial curve]”. `O=C(/C=N/O)Nc1ccccc1C(=O)O` was tested, and the Potency was inconclusive: 20 µM [inhibitor, partial curve]. `COc1ccc(-c2csc3ncnc(N4CCN(c5ccc(OC)cc5)CC4)c23)cc1` was tested, and the Potency was active: 31.6 µM. In the case of `CC(Cl)C(=O)c1ccc2c(c1)CCN2C(=O)C1CC1` (stereo not drawn), the Potency is reported as “inactive”. `COc1cc2c(cc1NC(=O)CC1SC(N3CCCC3)=NC1=O)oc1ccccc12` (stereo not drawn) was tested, and the Potency was inconclusive: 28.2 µM [inhibitor, single point]. With `O=C(OCC(=O)N1CCOCC1)c1cccc(S(=O)(=O)Nc2ccc(F)cc2)c1` the Potency was “inactive”. `O=C(OCC(=O)N1N=C(c2ccc(Cl)cc2)CC1c1ccco1)c1cccnc1` (stereo not drawn) was tested, and the Potency was active: 35.5 µM. For `Cc1ccc(-n2c(SCc3ccccc3F)nc3[nH]ncc3c2=O)cc1C`, the Potency was inconclusive: 63.1 µM [inhibitor, partial curve]. With `CN(C)c1ccc(/C=N/Nc2nc3ccccc3o2)cc1` the Potency was “inactive”. With `COc1cc(/C=C(\CCC(=O)O)c2nc3ccccc3s2)ccc1OCC(=O)Nc1c(Cl)cccc1Cl` the Potency was inconclusive: 44.7 µM [inhibitor, partial curve]. With `CC(C)C[C@@H](NC(=O)C1CCC(CNC(=O)[C@@H]2CCCN2C(=O)OC(C)(C)C)CC1)C(=O)O` (stereo partly drawn) the Potency was “inactive”. With `CCOc1ccc(C(C)=O)cc1N1C(=O)C2C3C=CC(C3=C(C)C)C2C1=O` (stereo not drawn) the Potency was “inactive”. `CCn1c(C)cc(/C=C2\NC(=O)N(CC(=O)Nc3ccc(F)cc3)C2=O)c1C` was tested, and the Potency was inconclusive: 39.8 µM [inhibitor, single point]. With `COC(=O)CCn1c(C)cc(C(=O)COc2ccccc2C(N)=O)c1C` the Potency was inconclusive: 56.2 µM [inhibitor, partial curve]. In the case of `CC1CN(c2cc(=O)n(-c3ccccc3)c(=O)[nH]2)CC(C)O1` (stereo not drawn), the Potency is reported as “inactive”. For `CCc1c(O)nc(SCC(=O)Nc2nc3ccccc3s2)n(C2CCCCC2)c1=O`, the Potency was inconclusive: 79.4 µM [inhibitor, partial curve]. With `c1ccc(-c2nn3c(Cn4nnc5ccccc54)nnc3s2)nc1` the Potency was inconclusive: 28.2 µM [inhibitor, full curve, poor fit]. With `COc1ccc(C2/C(=C(/O)c3ccccc3)C(=O)C(=O)N2C)c(OC)c1` (stereo not drawn) the Potency was “inactive”. In the case of `CC(OC(=O)c1ccccc1C(=O)O)c1ccccc1` (stereo not drawn), the Potency is reported as “inactive”. With `Cn1nccc1NC(=O)Nc1cccc([N+](=O)[O-])c1` the Potency was “inactive”. In the case of `Cc1cc(C)n2[nH]c(=O)c(N=Nc3ccccc3)c2n1`, the Potency is reported as inconclusive: 39.8 µM [inhibitor, single point]. In the case of `OC1CCN(Cc2ccc3ccccc3c2)CC1`, the Potency is reported as active: 3.55 µM. In the case of `Cc1cc(Cl)ccc1NC(=O)C1CCN(c2nnc(-n3c(C)ccc3C)s2)CC1`, the Potency is reported as “inactive”. `Cc1ccc2ccc3cc(C(=O)N4CCN(c5ccccc5)CC4)nc3c2[nH]1` was tested, and the Potency was inconclusive: 50.1 µM [inhibitor, partial curve]. `CC(=O)Nc1ccc(-c2nnc(SCC(=O)c3ccc([N+](=O)[O-])cc3)o2)cc1` was tested, and the Potency was “inactive”. In the case of `Cc1ccc(NC(=O)C(=O)NCC(c2cccnc2)N2CCN(Cc3ccccc3)CC2)cc1` (stereo not drawn), the Potency is reported as “inactive”. For `Cc1ccc(N(CC(=O)NCC2CCCO2)C(=O)CCC(=O)Nc2ccccn2)cc1C` (stereo not drawn), the Potency was inconclusive: 89.1 µM [inhibitor, single point]. `CCn1c(SCC(=O)Nc2nccs2)nnc1-c1ccc(S(=O)(=O)N2CCCCCC2)cc1` was tested, and the Potency was “inactive”. For `O=C(NCCc1ccccn1)c1nc(Cn2ccc([N+](=O)[O-])n2)no1`, the Potency was “inactive”. With `CN(C)/C=C1\NC(=S)N(c2ccc(Cl)cc2)C1=O` the Potency was active: 44.7 µM. In the case of `Cc1ccccc1NC(=S)N/N=C1\CC(C)(C)Oc2ccc(O)cc21`, the Potency is reported as active: 39.8 µM. With `CC(=O)CC(=O)Nc1ncc(C(F)(F)F)cc1Cl` the Potency was “inactive”. In the case of `Oc1ccc(CCc2ccccc2)c2cccnc12`, the Potency is reported as active: 44.7 µM. With `COc1cc(N2CCCC2)c(OC)cc1/C=C(/C#N)c1cccc(F)c1` the Potency was active: 20 µM. `Cc1cccc(C(=O)Nc2nnc(SCC(=O)Nc3ccc4c(c3)oc3ccccc34)s2)c1` was tested, and the Potency was inconclusive: 39.8 µM [inhibitor, single point]. With `CCOc1ccc(S(=O)(=O)NCc2ccccn2)cc1NC(=O)c1ccccc1` the Potency was active: 7.94 µM. With `CCCCN(C)CCNC(=O)c1ccc2c(c1)NC(=O)CN2` the Potency was “inactive”. With `CCOc1cc(N2CCOCC2)c(OCC)cc1NC(=O)Cc1ccccc1OC` the Potency was inconclusive: 79.4 µM [inhibitor, partial curve]. For `Cc1cccc(OCC(=O)Nc2nnc(-c3ccco3)s2)c1`, the Potency was “inactive”. `CC1CCc2ccccc2N1C(=O)c1cccs1` (stereo not drawn) was tested, and the Potency was active: 56.2 µM. In the case of `Cc1ccccc1NC(=O)CN(c1ccc(Cl)cc1Cl)S(=O)(=O)c1ccccc1`, the Potency is reported as “inactive”. `COc1ccc(OC)c(S(=O)(=O)Nc2cc(C(=O)O)ccc2N2CC3CC(C2)c2cccc(=O)n2C3)c1` (stereo not drawn) was tested, and the Potency was “inactive”. In the case of `Cc1cc(C)nc(SCC(=O)c2ccc(C)c(C)c2)n1`, the Potency is reported as “inactive”. With `CC(Oc1cccc(Cl)c1)C(=O)Nc1ccc(N2CCOCC2)cc1N1CCOCC1` (stereo not drawn) the Potency was inconclusive: 50.1 µM [inhibitor, partial curve]. In the case of `Cc1ccc(-n2c(CCc3nc4ccccc4[nH]3)n[nH]c2=S)cc1`, the Potency is reported as active: 7.94 µM.
